Here are results for two compounds from the CheMixHub viscosity set.

The conditions of this series: 303.15 K; 101 kPa.

± gives the uncertainty stated by the source. A number of entries come with more than one value. This list holds those alone. The source may hold further records. The records of an entry repeat one measurement (runs, samples, wells, individuals or studies). What stands in brackets tells the records apart. The letters are not those of the source and start again with each entry.

One may read the viscosity as the internal friction of a fluid under shear. A high value points to a thick fluid.

On to `CCC(=O)CC`, for which the viscosity is 0.428 ± 0.02 mPa·s [study A] and 0.414 ± 0.016 mPa·s [study B] and 0.419 ± 0.011 mPa·s [study C] and 0.419 ± 0.006 mPa·s [study D].

For `OCc1ccccc1`, the viscosity was 4.201 ± 0.18 mPa·s [study A] and 4.65 ± 0.1 mPa·s [study B] and 4.605 ± 0.036 mPa·s [study C] and 4.654 ± 0.22 mPa·s [study D] and 4.645 ± 0.04 mPa·s [study E] and 4.525 ± 0.039 mPa·s [study F].
